In publication PMC10668032:
The other results are listed elsewhere or left out. At the low end of the ranking the order means little.

biological target: SIX1-Q177R homeodomain (UniProt Q15475); experiment: universal protein binding microarray; settings: Universal all-10-mer PBM (8x60K, AMADID 030236), 300 nM GST-tagged protein, Alexa Fluor 488 anti-GST; buffer, salt, pH and temperature not stated; high values mean tight binding; most listed sequences are background and not binding sites; double strand, one strand shown

Sequence	binding signal [E-score]
ATCCCGGG	0.209
ACGAGAGT	0.0232
AACCAACT	0.00094
GTGCTTGA	0.186
GGGGGCCA	-0.115
CTCTTAAA	-0.275
ATCACAAC	-0.0409
ATACATCC	0.122
AATATTAG	0.133
AGTTTTGA	0.0278
AGTCACCA	0.0485
TAGTACGA	-0.0995
CGGTAACA	0.085
ACGCGACC	0.149
ATAAAAAC	-0.0998
AGTATCAA	0.126
CTAATGAA	-0.0223
GGGTTAAC	0.103
AAAACACT	0.301
GTGTAAGA	0.411
AAAAGTGC	-0.203
AACGCAGT	-0.201
TCCGTAGA	-0.174
GAAGGCAC	-0.0147
CGCAGTTA	-0.232

Sequence	binding signal [E-score]
AGCAGCAT	-0.263
CAGGTGCG	0.131
TCGATTAA	0.141
AGACACGC	0.346
GCGAATAC	-0.0152
CAGTCTCG	-0.307
CATACTTC	-0.105
TGGTGAAA	-0.0929
ATGTCAAT	-0.237
TGCCGTAA	-0.18
GGATTGAA	-0.0689
CCGTCTCC	0.13
CCCCTGTC	0.0769
CGCCCGTC	0.111
GATGGCGA	-0.164
CGCAACGC	-0.16
GGATTCAA	0.0574
AATTATGC	-0.287
AGAGACCA	-0.242
CACTATCG	0.104
TACCCATA	0.125
CGATTTAC	0.0095
TGAAGACA	0.106
AATCATTG	-0.164
CTTCACAC	0.278

Sequence	binding signal [E-score]
TCCTTACA	0.222
AAGCGTCC	0.127
AATACACG	0.379
CCACGCAG	0.0436
GCGGAGGA	-0.33
ACAGGTGG	0.0387
AGTCAGAT	0.0522
GGGAGCTA	0.0723
AAGAATCG	-0.0806
CACTGCTA	0.138
GGACCAAC	-0.0864
GCCTTCCC	-0.169
CGTGTCTC	0.338
CGCTACGA	-0.0912
CCCACGAC	0.148
CACTGAAG	0.0466
CTCTACAG	-0.0391
AACATTTA	-0.187
CCTGACGA	0.0033
ATTAGCAA	-0.222
CCCCAGCC	0.0442
AAGAATCT	-0.306
ACCCTCCT	0.11
GAAATACC	0.0213
CGGTTCCA	-0.15

Sequence	binding signal [E-score]
GTGTTATA	0.432
AAGTTATT	-0.0997
GATCGCGC	0.098
GCTTTAAA	-0.181
ATGCATTC	-0.209
CTTTACTA	-0.106
GAGGGGAA	-0.000465
CCGGGACC	0.00585
ACCCGTAT	0.131
CAGGGGGC	-0.0732
CTCATGCC	-0.224
GGCACCTA	0.0451
AAGACCGG	-0.0295
TACACGGA	0.402
TACGTTAA	-0.106
ACATCAGT	-0.0564
ATGATCGC	-0.0795
CCGAAAGC	0.0382
AGCCGATA	-0.244
GAGACGCA	0.0458
GGGCGATA	0.125
TGCGAGCA	-0.159
AAGGTTTA	-0.0242
CTCCGGAC	0.103
GTTGTAGA	-0.0294

Sequence	binding signal [E-score]
ACTGGGAC	-0.0503
AGAGTGCT	0.118
ATTGGGTG	0.261
AACAACTG	-0.225
GTAGTTTA	0.0269
CCCAAGGG	0.0437
ATGTGCTC	-0.134
ATTCCCTA	-0.0709
GTTGACCA	-0.0854
CTAGTGCC	-0.212
CTTAAAGA	-0.117
AAGACACG	0.35
AGGCTCTA	-0.341
AAACGCCG	0.02
GTCGACCA	0.00099
ACGTTCCT	-0.029
CGCAAATC	-0.0955
AGTGTATA	0.359
ATACAGTC	-0.286
CGGACCTA	-0.0186
GGCAGTAA	-0.143
GCGGTAAC	-0.00086
ATTTCCTC	-0.144
CCGGTCAA	0.2
GGCGACAC	0.44

Sequence	binding signal [E-score]
CAACATAA	-0.112
ACGACTCA	0.028
ATTTGGAG	0.0741
CAGTACCC	0.135
AAGCCAGC	-0.0146
GTTAGTGA	0.162
TTACACAA	0.223
AGGTCACC	-0.12
AATATAAC	0.0351
ATGTTAAG	-0.0168
ATTACAAC	-0.226
GCCCCTGA	-0.0086
GAAGTGAA	-0.119
CGTGTTAC	0.408
CTTTAGCC	-0.156
TATCTTAA	-0.0267
AAGTTGGT	-0.0933
CGCCCACA	0.0437
ATTAATCC	0.0551
ATCCCGAA	0.0583
GGGCTCTA	-0.072
GCGGCACA	-0.0543
ATTCGTGA	-0.162
CAGTCCCA	-0.183
TACGCATA	0.0319

Sequence	binding signal [E-score]
CAAAATAG	-0.223
ATTCGCTA	-0.0733
TCTGTTAA	-0.173
CCTCACCG	-0.039
ATGCGAGC	-0.0551
AGCTGCAG	-0.141
CATATGCA	0.0415
GCCGCGGC	-0.0971
AGTGATTA	-0.0388
AAGGCTAC	-0.032
CAGGTACG	0.119
ATCTAGCA	-0.0349
CGTTGGAG	-0.0454
CCGAAGCA	0.0848
CGAAAACG	-0.236
CTAACACA	0.209
AACGTCAG	-0.0853
AGGCGCAG	-0.113
CACTGTGG	0.15
ACCGCGAT	-0.0762
AGGGCTAG	-0.193
CTATCTAA	-0.128
